Hit rate of the full screen: of about 340,000 compounds, about 6,900 (2%) were called active. Rule as the data show it: active = inhibition above about 30%; inactive = below that, where a call was filed. The list shows a part of the results, in another mix than the full data. Where no call is shown, the source filed none.
Target: D(2) dopamine receptor (Homo sapiens) (UniProt P14416)
Assay: HTS Assay for Allosteric Antagonists of the Human D2 Dopamine Receptor: Primary Screen for Antagonists; also: 0% is about no effect
Details: HEK293 TREx D2 cells, calcium flux, dopamine EC80; at 10 µM; stronger effect = higher value
Summary of the method: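 Measurement of antagonist activity uses fluorescent calcium dye in inducible HEK293 T-REx D2 cells: 10 s baseline, compound addition with 180 s read, EC80 dopamine addition with a further 180 s read.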

UniProt P14416, sequence (P14416 whole entry, looked up): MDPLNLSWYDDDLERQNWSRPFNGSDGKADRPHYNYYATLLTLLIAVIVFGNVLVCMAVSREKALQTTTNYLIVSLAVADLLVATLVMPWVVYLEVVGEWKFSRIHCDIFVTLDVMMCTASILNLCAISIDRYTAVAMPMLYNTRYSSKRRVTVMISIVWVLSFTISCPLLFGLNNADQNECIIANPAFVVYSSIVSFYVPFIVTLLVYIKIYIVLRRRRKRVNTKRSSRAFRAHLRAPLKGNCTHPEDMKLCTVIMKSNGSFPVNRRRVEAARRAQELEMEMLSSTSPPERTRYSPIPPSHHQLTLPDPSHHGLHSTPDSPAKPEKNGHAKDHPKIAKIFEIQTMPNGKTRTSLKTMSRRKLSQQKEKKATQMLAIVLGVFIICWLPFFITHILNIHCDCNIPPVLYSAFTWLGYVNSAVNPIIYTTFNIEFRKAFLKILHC

SMILES | inhibition
COc1cccc(C(=O)Nc2cccc(C(=O)OCc3cc(=O)n4nc(C(C)C)sc4n3)c2)c1 | -7.96%
CCCc1ccc(OCC(O)CN2CCN(c3ccccn3)CC2)cc1 (stereo unspecified) | active: 74.2%
CNCc1c(OCc2ccccc2F)ccc2ccccc12 | active: 77.8%
CC(=O)N1CCC(N(C(=O)Nc2c(F)cccc2F)C(C)C)CC1 | 3.88%
O=C(NCc1cccc(Cl)c1)C1CCN(C(=O)c2sccc2-n2cccc2)CC1 | 11.7%
CCc1ccc(C(=O)c2cn(CC(=O)Nc3ccc(OC)cc3OC)c3ccc(CC)cc3c2=O)cc1 | -15.9%
COc1ccc(C(=O)N(Cc2cc(OC)c(OC)c(OC)c2)CC2CCCO2)cc1 (stereo unspecified) | 8.19%
O=C(NCC(c1cccnc1)N1CCc2ccccc21)c1cccc(C(F)(F)F)c1 (stereo unspecified) | 5.34%
O=C(CSc1nccn1Cc1ccc(F)cc1)Nc1ccc2c(c1)OCCO2 | -0.0629%
Cc1ccc(-c2noc(-c3nnn(CC(=O)Nc4cc(C)cc(C)c4)c3N)n2)cc1 | -2.7%
CCCNC(=O)CSc1nc2nc(C)c(Cc3ccccc3Cl)c(C)n2n1 | 7.41%
CCN(CC)S(=O)(=O)c1cc(-c2onc(C)c2C)ccc1OC | 3.12%
COc1ccc(CCCc2nnc(SCC(=O)Nc3ccc(C)cc3C)o2)cc1 | -20.6%
CCc1ccc(CNC(=O)CSc2cc(=O)n(C)c3ccc(Cl)cc23)cc1 | 3.73%
COc1ccc(OC)c(CNC(=O)Cc2ccc(NC(=O)N3CCCCc4ccccc43)cc2)c1 | 5.54%
COCCCNC(=O)c1c(NC(=O)Cc2coc3cc(C)cc(C)c23)sc2c1CCCC2 | -0.521%
CCN(CCCNC(=O)c1cc2c(=O)n(CC)c3ccccc3c2s1)c1ccccc1 | 16%
CC1CCCC(C)N1C(=O)CSc1nnc(C2CCCCC2)o1 (stereo unspecified) | active: 90.3%
CC(NC(=O)CCSCc1ccccc1F)c1ccccc1 (stereo unspecified) | 22.6%
COc1ccc(-c2cc(-c3ccccc3)nc(SCC(=O)CC(=O)OC(C)C)c2C#N)cc1 | 0.402%
O=C(c1ccc2c(c1)N(Cc1ccccc1F)C(=O)c1ccccc1S2(=O)=O)N1CCCC1 | -15.1%

SMILES | inhibition
CC1=C(c2ccc(C)c(C)c2)S(=O)(=O)N=C1N1CCC(C(=O)NCc2ccc(C)o2)CC1 | -5.5%
Cc1ccccc1OCCn1c(CCNC(=O)C(C)(C)C)nc2ccccc21 | -1.06%
CC(C)(C)OC(=O)N1CCC(c2c(C(=O)N3CCc4ccccc4C3)cnn2-c2ccc(F)cc2)CC1 | -6.35%
CCOc1ccc(-c2nc(C#N)c(NCCCOC)o2)cc1 | -9.05%
CC(NC(=O)CCCn1c(=O)c2cccn2c2cccnc21)c1ccccc1 (stereo unspecified) | 1.98%
Cc1coc2c(C)c3oc(=O)c(CCC(=O)NCCc4ccc(Cl)cc4)c(C)c3cc12 | 8.08%
CCc1ccc(CNC(=O)c2ccc(-c3nc(CS(=O)(=O)c4ccccc4)c(C)o3)cc2)cc1 | -4.07%
COc1ccc(N2CCN(C(=O)c3nc(SC)ncc3Cl)CC2)cc1 | -6.85%
O=C(Cn1nc(-c2ccc(Cl)cc2)ccc1=O)NCc1ccccc1Cl | 6.49%
CCOc1ccc(OCC)c(NC(=O)CN(C)S(=O)(=O)c2ccc3c(c2)CCCC(=O)N3)c1 | 2.09%
COc1cccc(C2C(C(=O)Nc3ccc(C)cc3C)=C(C)Nc3c(C(=O)Nc4cccc(C)c4)cnn32)c1OC (stereo unspecified) | -2.45%
COc1cccc(N2CCN(C3C(=O)c4ccccc4N3C(C)=O)CC2)c1 (stereo unspecified) | 6.66%
CCc1c(C)nc2nc(SCc3ccccc3Cl)[nH]n2c1=O | active: 31.9%
COc1ccc(N2CCN(C(=O)c3ccc(-c4nc(COc5ccccc5)c(C)o4)cc3)CC2)cc1 | 0.539%
CCCNC(=O)C1CCC(Cn2c(=O)c3sccc3n(CC(=O)N3CCC(C)CC3)c2=O)CC1 (stereo unspecified) | 18%
Cc1cccc(OCC(=O)N(Cc2sccc2C)C2CCS(=O)(=O)C2)c1 (stereo unspecified) | -2.73%
CCOC(=O)N1CCc2c(sc3c2c(=O)n(-c2ccc(CC)cc2)c(=O)n3CC(=O)c2ccc(F)cc2)C1 | -12.7%
Cc1c2cnn(CC(=O)Nc3cccc(C(F)(F)F)c3)c(=O)c2c(C)n1Cc1ccccc1Cl | 4.37%
COc1ccccc1/C=C/c1nc(C#N)c(N(C)C)o1 | -8.59%
COc1cc(C(=O)Nc2ccc3nc(SCc4ccccc4)sc3c2)cc(OC)c1OC | -3.73%
CCN(C(=O)CSc1nc2ccccc2n1Cc1cc(C)ccc1C)c1ccccc1 | 3.88%

SMILES | inhibition
CCC(Sc1nncn2c1cc1occc12)C(=O)Nc1ccc(C)c(Cl)c1 (stereo unspecified) | -3.7%
Cc1ccc(C(=O)NCC(c2cccs2)S(=O)(=O)c2cccs2)cc1 (stereo unspecified) | -2.65%
COc1ccc(S(N)(=O)=O)cc1-c1nnc2c3ccccc3c(C)nn12 | active: 30.1%
CCOC(=O)c1cccc(NC(=O)CC2C(=O)N(c3ccc(F)cc3)C(=O)N2C(C)C)c1 (stereo unspecified) | 5.97%
COCCCNC(=O)CC(c1cc(OC)c(OC)c(OC)c1)N1Cc2ccccc2C1=O (stereo unspecified) | 11%
Cc1ccc(-c2nc3ncccc3o2)cc1NC(=O)COc1ccc(C(C)C)cc1 | 2.01%
COc1ccc(NC(=O)C(Cc2ccccc2)NS(=O)(=O)c2ccc(Br)s2)cc1OC (stereo unspecified) | 6.73%
Cc1ccc([N+](=O)[O-])cc1N/C=C1\CCCCC1=O | active: 51.8%
Cc1noc(/C=C/c2ccco2)c1S(=O)(=O)N1CCC(C(=O)Nc2ccc(F)cc2F)CC1 | -2.67%
Cc1ccc(OCC(=O)Nc2ccc3nc(SCc4ccccc4)sc3c2)cc1 | 1.37%
CCCCN(Cc1ccccc1)C(=O)CN(C)S(=O)(=O)c1ccc2c(c1)c(=O)n(C)c(=O)n2C | -22.1%
O=C(Nc1cc(C(F)(F)F)ccc1Cl)c1cc(S(=O)(=O)NCc2ccccc2)ccc1F | -21.8%
CC1CN(C(=O)CCC(=O)NCc2cccnc2)c2ccccc2O1 (stereo unspecified) | active: 35.5%
CCOC(=O)c1cccc(NC(=O)Cn2c(=O)nc(-c3ccccc3)c3ccccc32)c1 | 6.26%
CCc1cc2c(cc3c(=O)n(CCCC(=O)NCc4ccccc4Cl)nc(CC)n32)s1 | 8.07%
Cc1cccc(OCc2ccc(-c3nc(C#N)c(N4CCC(C(N)=O)CC4)o3)o2)c1 | -21.4%
COc1ccccc1CCNC(=O)CCn1c(=O)c2cccn2c2ccc(F)cc21 | 9.7%
CCOc1cc(C(=O)Nc2ccc3oc(-c4ccc(CC)cc4)nc3c2)cc(OCC)c1OCC | -5.93%
COc1ccc(CCNC(=O)CCc2c(C)nc3cc(-c4ccccc4)nn3c2C)cc1OC | 5.41%

Source: PubChem BioAssay AID485344 (National Center for Advancing Translational Sciences (NCATS), 2010)
